Data as given in the supplement of paper PMC7125110.
± gives the standard error. This sample is rich in variants without activity.

B1: glmS ribozyme (parent)
chain: AUAAAAGCGCCAGAACUACAGAAAUGUAGUUGACGAGGAGGAGGUUUAUCGAAUUUUCGGCGGAUGCCUCCAAA

What was measured:
Conditions in all cases: with glucosamine-6-phosphate
glucosamine-6-phosphate [1] = variants of: B1; assay: self-cleavage kobs at 640 uM GlcN6P; higher = faster cleavage; RNA array
Summary of the method: (§1)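 In situ transcription by E. coli RNA polymerase produced barcoded ribozyme variants on sequenced MiSeq chips, and a hybridised Cy3 probe tracked them at 37 °C. Glucosamine-6-phosphate was flowed in at 40 μM to 10 mM in HEPES/KCl/Mg(OAc)2 buffer. kcat and KM were taken from weighted Michaelis–Menten fits of kobs values from exponential decay fits.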

glucosamine-6-phosphate [2] = variants of: B1; assay: self-cleavage kobs at 2500 uM GlcN6P; higher = faster cleavage; RNA array
Summary of the method: as §1

glucosamine-6-phosphate [3] = variants of: B1; assay: self-cleavage kobs at 10000 uM GlcN6P; higher = faster cleavage; RNA array
Summary of the method: as §1

glucosamine-6-phosphate [4] = variants of: B1; assay: self-cleavage kobs at 160 uM GlcN6P; higher = faster cleavage; RNA array
Summary of the method: as §1

Variant	self-cleavage kobs at 640 uM GlcN6P (glucosamine-6-phosphate [1]) [s⁻¹]	self-cleavage kobs at 2500 uM GlcN6P (glucosamine-6-phosphate [2]) [s⁻¹]	self-cleavage kobs at 10000 uM GlcN6P (glucosamine-6-phosphate [3]) [s⁻¹]	self-cleavage kobs at 160 uM GlcN6P (glucosamine-6-phosphate [4]) [s⁻¹]
A6C G35C G41C	< 1e-05			
A6U A39U C50U U69A C70A	< 1e-05	< 1e-05		
A6U A15G C19A A33C C68G	< 1e-05	< 1e-05		
A6U C50A G60A C70A	0.000136 ± 5e-05			
A6G C11A U56A	< 1e-05			
A6G U30A A39U G60U	< 1e-05	< 1e-05		
G7C A15G U30G	< 1e-05		< 1e-05	
A6G C8G U30G U31C G44A U54G	< 1e-05			< 1e-05
G7C U30G C61A	< 1e-05			
A6G A36G G44U C61U	< 1e-05	< 1e-05		< 1e-05
A6G G29C G35U A42C C58G C68G	< 1e-05			
A6G C16G G38A	< 1e-05			< 1e-05
G7C G62U C68U	< 1e-05			< 1e-05
G7A A36G G43A	< 1e-05	< 1e-05		
G7A G40A A42C C67G	< 1e-05	< 1e-05		
G7U C8G G59C	< 1e-05	< 1e-05		< 1e-05
A6G A15C U47A A53C	< 1e-05	< 1e-05		
G7C G43C G59C C71G	< 1e-05	< 1e-05		< 1e-05
G7U A33G U54C	< 1e-05			
A6U C16U G40U C67A	< 1e-05	< 1e-05		
A6G A14G U49C U55G C67G	< 1e-05	< 1e-05		
G7A G38C G41U U47C	< 1e-05	< 1e-05		
A6G C11U A36U	< 1e-05			
G7A U65C	< 1e-05	< 1e-05	< 1e-05	< 1e-05
A6U G9U G63U	< 1e-05			
A6C G37C U65A	< 1e-05	< 1e-05		< 1e-05
A6U U31A A36C G66C	< 1e-05			
A6G C68U C70G	< 1e-05			
G7C G41A U47C	< 1e-05			
A6U G13A G41C C67U U69C	< 1e-05	< 1e-05	< 1e-05	< 1e-05
